The record followed here is PubChem BioAssay AID463173 (ICCB-Longwood Screening Facility, Harvard Medical School, 2010).

The structures appear in SMILES notation. Among all 52,000 compounds or so, about 4,300 (8.3%) were called active. No stated cut-off is given here; in the data, active means survival mostly below about 52% (no sharp cut-off); inactive means mostly above about 56%. The list shows a part of the results.

The test system of the assay is DeltatarO mutant. Put plainly: growth inhibition of S. aureus wild type versus tarO mutant, primary screen, teichoic acid synthesis inhibitors, RN4220, OD600 (AID 463173). The note with it: OD600, 18 h, hits give low values, screened at 18.75 µg/mL (by protocol).
As for `COc1ccc(NC(=O)c2ccc3c(c2)sc2nc(-c4ccc(OC)cc4)cn23)cc1`, the survival was inactive: 61%.

Take `Cc1ccc(NC(=O)Cn2c(=O)n(Cc3ccco3)c(=O)c3ccccc32)c(C)c1`: the survival is inactive: 84%.

For `CCOc1ccc(C2CC(=O)N(c3cccc(F)c3)C3=C2C(=O)OC3)cc1` (stereo unspecified), the survival was inactive: 120%.

As to `CCN(CC)c1cc2c(cc1F)c(=O)c(S(=O)(=O)c1cccc(C)c1)cn2C`, the survival was inactive: 87%.

For `Cc1ccc(-c2cn(-c3cccc(Cl)c3)c(S(=O)(=O)CC(=O)Nc3ccccc3F)n2)cc1`, the survival is inactive: 61%.

`O=C(Nc1ccc(C(F)(F)F)cc1)N1C2CCC1CC(O)(c1cccnc1)C2` (stereo unspecified): the survival was inactive: 65%.

Turning to `CCOc1ccccc1NC(=O)C(CC)Sc1nc2ccncc2[nH]1` (stereo unspecified), the survival is inactive: 122%.

As to `COc1ccc(CCNC(=O)c2ccc(Cn3c(=O)c4ccccc4n(Cc4cccc(Cl)c4)c3=O)cc2)cc1OC`, the survival is inactive: 91%.

Turning to `CC(C)c1ccc(NS(=O)(=O)c2ccc3nc(-c4ccccc4)[nH]c3c2)cc1`, the survival was inactive: 67%.

With `CC(Sc1nnc(-c2ccco2)n1-c1ccccc1)C(=O)NC(c1ccccc1)c1ccccc1` (stereo unspecified), the survival was inactive: 86%.

For `COc1ccc(NCc2cc3cc4c(cc3n(CC(=O)Nc3cc(C)ccc3C)c2=O)OCCO4)cc1`, the survival is inactive: 78%.

With `CCOc1ccc(CN2CCc3nc(Nc4ccc5c(c4)OCCO5)ncc3C2)cc1`, the survival was inactive: 89%.

Regarding `Cc1cccc(Nc2nc3nonc3nc2N/N=C\c2cccs2)c1C`, the survival was inactive: 69%.

With `Cc1nn2c(=O)cc(COC(=O)c3ccccc3NC(=O)C(C)Oc3ccccc3)nc2s1` (stereo unspecified), the survival was inactive: 95%.

For `CCc1ccc2ncc(C(=O)c3ccc(C)c(C)c3)c(N3CCC(C(N)=O)CC3)c2c1`, the survival was inactive: 86%.

Regarding `CCCOc1ccc(C(=O)N(Cc2ccccc2Cl)C2CCS(=O)(=O)C2)cc1` (stereo unspecified), the survival was inactive: 65%.

Take `COc1ccc(C2=Nc3ccc(F)cc3NC(c3cccc(C(F)(F)F)c3)=N2)cc1`: the survival is inactive: 68%.

With `Cc1ccc(Cn2c(CNC(=O)CCc3ccccc3)nc3cccnc32)cc1`, the survival was inactive: 97%.

For `Cc1cccc(N2CCN(Cc3nnc(-c4ccccc4C)o3)CC2C)c1` (stereo unspecified), the survival was active: 33%.

As to `COC(=O)c1ccccc1NC(=O)c1cnc(Nc2ccc(OC)cc2)c2ccccc12`, the survival is inactive: 61%.

Take `CCOc1cc(Br)cc(C2NC(=O)c3c(sc4c3CCN(C)C4)N2)c1O` (stereo unspecified): the survival is inactive: 59%.

In the case of `CCC1CCCCN1C(=O)c1cc2cc(OC)ccc2oc1=O` (stereo unspecified), the survival was inactive: 111%.

In the case of `COCCCNC(=O)CCCn1c(SCC(=O)c2ccc(F)cc2)nc2c(sc3ccccc32)c1=O`, the survival is inactive: 73%.

Regarding `COc1ccc(CNC(=O)CSc2ncc3c(n2)-c2ccc(Cl)cc2N(Cc2ccc(F)cc2)S3(=O)=O)cc1OC`, the survival is inactive: 112%.

Turning to `O=C(CSc1c2c(nc3ccccc13)CCC2)Nc1ccc(F)cc1`, the survival is inactive: 127%.

As for `COc1ccc(Cn2c(C(=O)O)c(CNCc3ccco3)c3ccc(OC)cc32)cc1`, the survival is inactive: 69%.

Regarding `CC(C)c1c(O)c2ccccc2[nH]c1=O`, the survival is inactive: 81%.

In the case of `COc1ccc(-n2cnc3cc(C(=O)NC4CCCC4)ccc32)cc1`, the survival was inactive: 101%.

As to `CCOC(=O)c1ccc(NC(=O)CSc2nnc3c4ccccc4n(CC)c3n2)cc1`, the survival was inactive: 72%.

Take `CCCCNc1c2c(c(C#N)c3nc4ccccc4n13)CCC2`: the survival was inactive: 110%.

For the compound `Cc1ccc(CCNC(=O)CCCn2c(=O)c3ccccc3n(Cc3ccccc3C)c2=O)cc1`, the survival was inactive: 88%.

For `O=C(COc1ccc(F)cc1)NCC(c1ccc(Cl)cc1)N1CCCCC1` (stereo unspecified), the survival is inactive: 96%.

Consider `COc1cc(OC)c(-c2cc(C(=O)NCc3ccc(F)cc3)c3c(-c4ccccc4)[nH]nc3n2)cc1OC`, for which the survival was inactive: 98%.

Take `COc1ccc(CCNC(=O)Cn2c(=O)n(-c3ccccc3)c(=O)c3c(C)c(C)sc32)cc1OC`: the survival is active: 84%.

For `CC(=O)N1c2ccc(S(=O)(=O)N3CCCCCC3)cc2CC1C(=O)NCc1ccccc1C` (stereo unspecified), the survival is inactive: 70%.

For `CCCCOc1cccc(C(=O)N(Cc2ccc(N(C)C)cc2)C2CCS(=O)(=O)C2)c1` (stereo unspecified), the survival is inactive: 56%.

Regarding `O=C(Cn1cnc(S(=O)(=O)N2CCCC2)c1)Nc1cccc(Br)c1`, the survival was inactive: 67%.

In the case of `NC(=O)c1nsc(C(=O)N(CC(=O)NCc2ccc3c(c2)OCO3)C2CCCCC2)c1N`, the survival is inactive: 83%.

On to `Cc1cc(-c2nc3ncccc3o2)ccc1NC(=O)c1ccccc1Br`, for which the survival was active: 27%.

Turning to `COc1cccc(Oc2nc(C)nc3c2oc2ccccc23)c1`, the survival is active: 25%.

Regarding `Cc1c(C(=O)NCc2cccc(Cl)c2)sc2nc[nH]c(=O)c12`, the survival is inactive: 81%.

For `CCOc1ccccc1NC(=O)C1CCN(S(=O)(=O)c2cccs2)CC1`, the survival is inactive: 58%.

`CC(CNC(=O)CCc1cn(Cc2ccccc2Cl)c2ccccc12)c1ccccc1` (stereo unspecified): the survival was inactive: 66%.

Take `CCOc1ccc(NC(=O)Cn2ccn3nc(-c4ccc(OC)c(OC)c4)cc3c2=O)cc1`: the survival was inactive: 102%.

For the compound `Cc1cc(C)cc(NC(=O)Nc2ccc3nc(N4CCN(C)CC4)cc(C)c3c2)c1`, the survival is inactive: 117%.

Turning to `Cc1nc(N2CCCC2)c2c(C(=O)Nc3cccc(Cl)c3)c(C)oc2n1`, the survival is active: 20%.

`CCCS(=O)(=O)c1nc(S(=O)(=O)c2ccc(C)cc2)c(NCc2ccccc2Cl)s1`: the survival is inactive: 103%.

For `CC(=O)N1CCOc2cc(S(=O)(=O)NCc3ccc(F)cc3)c(C)cc21`, the survival is inactive: 88%.

As for `COc1ccc(-n2nc(C(=O)N3CCN(c4ccccc4OC)CC3)c3c4ccccc4n(C)c3c2=O)cc1Cl`, the survival was inactive: 123%.

`COc1ccccc1CNC(=O)CCCN1C(=O)CSc2c1c(C)nn2-c1ccccc1`: the survival is inactive: 86%.

For the compound `CC(C)C1N=C2c3ccccc3N=C(SCC(=O)NCc3ccc(Cl)cc3)N2C1=O` (stereo unspecified), the survival is inactive: 75%.

On to `O=C(Nc1ccc2c(c1)CCCN2C(=O)c1cccs1)c1ccccc1`, for which the survival was inactive: 89%.

For the compound `O=C(Cn1c(=O)n(Cc2ccccc2)c(=O)c2sc3ccccc3c21)Nc1ccccc1F`, the survival is inactive: 108%.

In the case of `O=C(NC1CCCc2ccccc21)c1ccc2c(c1)sc1nc(-c3ccccc3)cn12` (stereo unspecified), the survival was inactive: 67%.

Take `Cc1ccc2oc(-c3cccc(NC(=O)Cc4ccc(Cl)cc4)c3)nc2c1`: the survival was inactive: 72%.

Regarding `CSc1ccc(NC(=O)N2C3CCC2CC(O)(c2cccnc2)C3)cc1` (stereo unspecified), the survival was inactive: 79%.
